Experimental data taken from ChEMBL document CHEMBL1201862, “PubChem BioAssay data set” (2004).

Test system: NCI-H322M
Test: NCI-60 cell line screen, 48 h

Row | Structure (SMILES) | GI50
1 | O=C(/C=C/c1ccc(O)c(O)c1O)OCCc1ccccc1 | inactive: 26.5 µM
2 | Nc1ccc2[nH]cc(CCC(=O)O)c2c1 | inactive: > 100 µM
3 | O=C1NC(=O)C2(CCCCCC2)N1 | inactive: > 100 µM
4 | CC(=O)OCCN1c2ccccc2Sc2cnccc21 | inactive: > 10 µM
5 | O=C1/C(=C\c2cccc(Oc3ccccc3)c2)SC(c2ccccc2)N1c1ccc(Cl)cc1 (stereo not drawn) | inactive: > 100 µM
6 | C=C(C)C12CC3CC(/C(=N/O)C(C1)/C3=N\O)[C@@]2(C)O (stereo partly drawn) | inactive: > 100 µM
7 | C/C(=N/NC(=S)Nc1ccc([N+](=O)[O-])cc1)c1cccc(/C(C)=N\NC(=S)Nc2ccc([N+](=O)[O-])cc2)n1 | active: 0.351 µM
8 | CC(NC1=NCCO1)c1ccco1 (stereo not drawn) | inactive: > 100 µM
9 | CCOC(=O)C1(Cc2ccc(C)cc2)Cc2ccc(C)cc2C1=O (stereo not drawn) | inactive: 72.1 µM
10 | c1cc(-c2cscc2-c2ccsc2)cs1 | inactive: > 100 µM
11 | COc1ccc(SCc2cc(OC)c(OC)c(OC)c2)cc1OC | inactive: > 100 µM
12 | CCCCOC(=O)NC(Nc1cccc(C(F)(F)F)c1)(C(F)(F)F)C(F)(F)F | inactive: > 100 µM
13 | N#CC(NNC(=O)c1ccccc1O)c1ccccc1O (stereo not drawn) | inactive: 4.53 µM
14 | O=C(O)/C=C\C(=O)Nc1ccc(S(=O)(=O)c2ccc(NC(=O)/C=C\C(=O)O)cc2)cc1 | inactive: > 100 µM
15 | NN/C(=N\S(=O)(=O)c1cc2ccccc2s1)Nc1ccc(Cl)cc1 | inactive: 22.4 µM
16 | COc1ccc(/C=C/NC=O)cc1 | inactive: > 100 µM
17 | COC(=O)c1ccc(C)cc1C1CN=NC12Cc1cccc(C)c1C2=O (stereo not drawn) | inactive: > 100 µM
18 | COC(=O)C1OC(O[C@H]2CC[C@]3(C)[C@H]4CC=C5[C@@H]6CC(C)(C)CC[C@]6(C(=O)OC6OCC(O)C(O)C6OC6OC(C)C(OC7OCC(O)C(O)C7O)C(O)C6O)[C@H](O)C[C@@]5(C)[C@]4(C)CC[C@H]3C2(C)C)C(O)C(O)C1O (stereo partly drawn) | inactive: 2.32 µM and inactive: 2.41 µM
19 | CCOc1ccc(/C=C2/C(=O)N/C(=N\C(C)=O)N2C)cc1 | inactive: > 100 µM

Row | Structure (SMILES) | GI50
20 | CCOC(=O)c1c(Cl)nc2ccccc2c1N=[N+]=[N-] | inactive: 26.7 µM
21 | CN1C(c2ccccc2)CS(=O)(=O)CS1(=O)=O (stereo not drawn) | inactive: > 100 µM
22 | O=C(NNS(=O)(=O)c1ccccc1)c1csc(NC(=S)NC2CCCCC2)n1 | inactive: 32.6 µM
23 | O=C1NC(O)c2ccccc2O1 (stereo not drawn) | inactive: > 100 µM
24 | CS[C@]12[C@@H]3C(=O)N(C)C(=O)[C@@H]3[C@](C)(C(=O)N1C)C(=O)N2c1ccccc1 | inactive: > 100 µM
25 | COc1cc2c(cc1O)CC[n+]1cc3c(OC)c(OC)ccc3cc1-2 | inactive: > 100 µM
26 | CCO/C(=N/S(=O)(=O)C(F)(F)F)N(C(C)C)C(C)C | inactive: > 100 µM
27 | Cn1c(=O)c2c(nc3n(C)c(=O)c4ccccc4n23)n(C)c1=O | inactive: > 100 µM
28 | O=C(O)/C(Cl)=C(\Cl)C(=O)Nc1ccc(Cl)c(Cl)c1Cl | inactive: 20.8 µM
29 | COc1ccc(OC)c(CCc2ccccc2CC(=O)O)c1 | inactive: > 100 µM
30 | COP(=O)(OC)C(O)CC(C)C (stereo not drawn) | inactive: > 100 µM
31 | C[C@]12CCc3nonc3C1CC[C@@H]1C2CC[C@]2(C)NC(=O)CCC12 (stereo partly drawn) | inactive: > 100 µM
32 | [O-][Cl+3]([O-])([O-])[O-].c1ccc(-c2csc3c4ccccc4c4ccccc4[n+]23)cc1 | inactive: 13.7 µM
33 | CN(c1ccccc1)c1c(-c2ccccc2)c(=O)oc2c1ccc1occc12 | inactive: > 100 µM
34 | CCC(=O)NCC1CCCN2CCCCC12 (stereo not drawn) | inactive: > 100 µM
35 | COc1ccc(/C=C2\CN(C)CC3C2=NN(c2ccccc2)C3c2ccc(OC)cc2)cc1 (stereo not drawn) | inactive: > 100 µM
36 | C[N+](C)(C)CC1CCCC(C[N+](C)(C)C)C1O (stereo not drawn) | inactive: > 100 µM
37 | NCCCCN(CCCN)C(=O)c1ccccc1 | inactive: > 100 µM
38 | COc1cccc(-c2cc(O)c3cc(N4CCOCC4)ccc3n2)c1 | active: 0.0748 µM

“And” between values parts separate entries of the source, which are not always exact repeats. Identical values can stand only once.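 96-well plates; 48 h exposure; 5 concentrations. Endpoints by linear interpolation between flanking doses. Not reached: highest tested concentration assigned. At the GI50, growth is halved.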 The source made the active and inactive calls. Rule as the data show it: active = GI50 up to about 1.1 µM and inactive = higher.
